± gives the standard deviation of the averaged measurements. The list shows a part of the results.
The sequences below were run on PfAP2-LT AP2 domain (GST-tagged) (assay: gcPBM binding intensity (ln(normalized median fluorescence intensity)); higher = stronger DNA binding).
Summary of the method: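 The binding buffer was 1× PBS containing 1% milk, 0.2 mg/ml BSA, 0.5% salmon testes DNA and 0.03% Triton X-100. In it, GST-tagged P. falciparum DNA-binding domains expressed in E. coli were applied for 1 h to an Agilent 4 × 180k array of primer-extended double-stranded 36-bp intergenic genomic probes plus negative controls. Binding intensity, read with Alexa488 anti-GST antibody and a 488 nm scan, is the highest Masliner-normalised natural-log median intensity across replicate spots of either probe orientation.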

| Sequence | gcPBM binding intensity (ln) |
| --- | --- |
| TTAAAAAAAAAAAGGTGTACTATAATTTAATATCAC [XGTACX_site6316] | 8.46 ± 0.49 |
| TATATTTACGTATGTCGAACGTTATTTTGAACAACC [CACACA_negctrl_site1261] | 8.73 ± 0.49 |
| TATTCAACATAATATGCACACAAAAATTATGGAACG [CACACA_site8660] | 9.14 ± 0.44 |
| TTTAATTTTTTTTAAACACACACATTACATTCAAAA [CACACA_site7926] | 8.82 ± 0.49 |
| TTATATTATGCTTGAATGCACTTTGAAGCACAATCT [GTGCAC_site9789] | 8.68 ± 0.54 |
| AATATATAATTTTATAGTACATAATAAAAGAACAGG [XGTACX_site724] | 8.79 ± 0.43 |
| ATCACATAAAATATGAATATATATTTTATATATATA [CACACA_negctrl_site340] | 8.56 ± 0.4 |
| CGTTTATATAGTGATGCATGCATTGTTAACATGGTT [TGCATGCA_site418] | 9.12 ± 0.39 |
| TTTATACACAAAAAATGTACATATATATAATGAATT [XGTACX_site1195] | 8.72 ± 0.46 |
| TGTATGTCTTTATTTTGTACACAATATAAAAAATTA [XGTACX_site5441] | 8.51 ± 0.38 |
| CGCACAAAAATATACACACACACATATATATTTATT [CACACA_site3645] | 9.74 ± 0.28 |
| ATTTATTGACTATTTACACACATATTTATTATAATA [CACACA_site1624] | 9.12 ± 0.36 |
| TTTTTTTTTTTTTTTATAGTACATTACCAAAAAAAA [CACACA_negctrl_site1197] | 8.06 ± 0.24 |
| TTAAAATAAAGAAAATGTACATAAATTAAAATAAAG [XGTACX_site2281] | 8.75 ± 0.59 |
| ACACATAATATGTGTAGTACTTTTTCTTTAACATTA [XGTACX_site1436] | 9.17 ± 0.31 |
| TATAAATATAAATATACACACATATATTTATTTATA [CACACA_site6890] | 8.7 ± 0.35 |
| AACAGTAACATTGAATGTACTTAATTTTAAGAAAAT [XGTACX_site2971] | 8.71 ± 0.49 |
| TATTTTGTTCTTTCCACACACAAATACAGATATTGT [CACACA_site6097] | 9.35 ± 0.35 |
| ATTTGTATATATTAATGTACACACATGCGTATGTTC [XGTACX_site7579] | 9.46 ± 0.38 |

| Sequence | gcPBM binding intensity (ln) |
| --- | --- |
| TCTTATCCATATATTACACACTATAAATAGAAATTA [CACACA_site6274] | 8.43 ± 0.35 |
| TGGGTAAACAGACACACACACATATAGATTTATATA [CACACA_site7026] | 9.59 ± 0.53 |
| ACACACATATATACATGTACATATATATATATATAT [XGTACX_site451] | 9.8 ± 0.38 |
| CTTCCAATAAAAAATGCACACATTGAAAATATTGAA [CACACA_site2688] | 8.84 ± 0.42 |
| AAATTATATGAACATTGTACTTTATATATGTAAGAA [XGTACX_site1611] | 8.6 ± 0.45 |
| ATTTTCCAAAATAATTGTACAGGAAAGAAATAATTA [XGTACX_site7424] | 8.45 ± 0.4 |
| TGTAGTCTGGAGAAAAGTACATAGTATCTGGTAACC [XGTACX_site2025] | 8.73 ± 0.42 |
| TAATAAAATATGTACACACATACACCCATATATATA [CACACA_site1220] | 9.21 ± 0.35 |
| AGGAACAAAATATACTGTACTTTATTATTTTCAAAA [XGTACX_site4421] | 8.47 ± 0.51 |
| ATACATATTTTACATTCACACAACAAATTTATATTT [CACACA_site4700] | 8.8 ± 0.52 |
| ATATATTTTAATTGATGTACTTTTTTATGTTAATGA [XGTACX_site4316] | 8.62 ± 0.43 |
| TATACATATGAAAATACACACATACATACATATATA [CACACA_site8484] | 9.32 ± 0.33 |
| ATTATACATATATAAGTGCAATAATGTTTTTTCCTT | 8.7 ± 0.45 |
| AAGGTATATATAACTACACACTTATATATAATCTAA [CACACA_site92] | 8.84 ± 0.45 |
| ATTTATTTATTTATATGTACATATTTAAAGAGTTCA [XGTACX_site7631] | 8.58 ± 0.44 |
| ATATATATATATATATGTACTAAGAATTCTTTAAAA [XGTACX_site8476] | 8.99 ± 0.27 |
| TTACTTTTAACAAATGTGCGCAGTTATCACACAGAC | 8.98 ± 0.21 |
| TATATTTTGTTCTGTTGTACTAAAAAAATCTTTATA [XGTACX_site8372] | 8.39 ± 0.35 |
| ACAAAACAAAAAAACTCACACATATACGGCATGTCA [CACACA_site5608] | 8.97 ± 0.4 |

| Sequence | gcPBM binding intensity (ln) |
| --- | --- |
| ATTATAACTAAATAAATGATATATAATATTTTATTT [XGTACX_negctrl_site234] | 8.3 ± 0.54 |
| TATATATAGAAACACACACACACACCCAAGCGTAGC [CACACA_site63] | 10.1 ± 0.13 |
| AATTATAAAAAAAAAAAAAAAAAAAAAAACTAAATG [CACACA_negctrl_site1379] | 8.41 ± 0.54 |
| ATAATGTATTTATATATATATATATATTTTAATAAA [CACACA_negctrl_site460] | 8.64 ± 0.26 |
| TAATAAATCAATAAATGTACATATATGTATAATTTC [XGTACX_site980] | 8.91 ± 0.41 |
| TTTAAAAATATATTCACACAGAAATAGTAAAAGTTA [CACACA_site4587] | 8.61 ± 0.42 |
| TAAATATATTTATAAGCACACACTAATAAACCAACA [CACACA_site8022] | 9.11 ± 0.32 |
| TTATGCAATTTGTATTGTACATTCATGATATTAATA [XGTACX_site5070] | 8.67 ± 0.4 |
| ATCTATATCTATAATACACACATAAATGGATATATA [CACACA_site6284] | 8.87 ± 0.33 |
| AATGTGTACGCACGCACACACAAAAAAATATATATA [CACACA_site2913] | 9.59 ± 0.54 |
| CAAGCCCTTCTGCTTACACACAGTAATTATTGTGCA [CACACA_site7399] | 9.12 ± 0.36 |
| AATACCCATATCTTCACACATACATAATAAATTATA [CACACA_site5367] | 8.81 ± 0.36 |
| TTTGAATATTCATATGCACACAAATTAATATACATA [CACACA_site8040] | 8.84 ± 0.33 |
| TTTATTTATGTGTGGGTGCATATACGTATGATGTAT | 9.15 ± 0.32 |
| TTTATTTTATTTTCATGTACAAAAGGGGAATAATAA [XGTACX_site2704] | 8.26 ± 0.34 |
| GATTTATACAAATATGTACACACTAAATATATATTA [CACACA_site455] | 8.83 ± 0.4 |
| TATTTATCTTTACGCACACACTTGCATGTACAAAAG [CACACA_site4753] | 9.32 ± 0.44 |
| ATATGTATGTATTTATTATTGTGCATTGTATTTATA [CACACA_negctrl_site664] | 9.12 ± 0.43 |
| ATATATTTATATATTTGTACATATAATATCTTCTTT [XGTACX_site8504] | 8.78 ± 0.45 |

— the supplement of paper PMC11417369
